For 172 sequences, binding signal (normalized occupancy) results are on record in publication PMC4242493.

Some of the results follow. The list includes weakly bound sequences.

The target in the assay is MaxL homodimer (UniProt P61244). In words: universal protein-binding microarray (PBM). As to conditions: PBS-based mixture, 10 nM His-tagged protein dimer, 2% milk, 200 ng/uL BSA, 50 ng/uL salmon testes DNA, 0.02% TX-100; detection with Alexa 488 anti-His …; high values mean tight binding; most listed sequences are background and not binding sites; double strand, one strand shown.
UniProt P61244, sequence (P61244 whole entry): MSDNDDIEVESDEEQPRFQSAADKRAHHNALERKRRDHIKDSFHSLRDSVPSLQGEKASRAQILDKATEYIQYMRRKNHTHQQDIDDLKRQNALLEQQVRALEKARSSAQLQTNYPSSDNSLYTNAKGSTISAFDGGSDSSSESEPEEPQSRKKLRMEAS
Regarding CACAAGCG, the binding signal (normalized occupancy) was 0.081. Consider AAAAACCC, for which the binding signal (normalized occupancy) was 0.0707. Consider CAACCGCG, for which the binding signal (normalized occupancy) was found to be 0.0748. Turning to CTACCATC, the binding signal (normalized occupancy) was 0.0742. The value for GAGGCTTA was 0.0759. In the case of CGCGAGGA, the binding signal (normalized occupancy) was determined as 0.0811. Turning to AACTCACT, the binding signal (normalized occupancy) turned out to be 0.0726. The value for CAAGCGGG was 0.0669; that for ATACTTCC was 0.0774. For the sequence AGATACTA, the binding signal (normalized occupancy) is 0.0732. Consider ACGTGGAT, for which the binding signal (normalized occupancy) worked out at 0.104. Consider GTAGAAGA, for which the binding signal (normalized occupancy) came to 0.0701. Turning to CTGGCCTC, the binding signal (normalized occupancy) stood at 0.0672. The value for AACGAGTG was 0.0753; that for ATATCCCA was 0.0855; that for GATTGAAC was 0.0737.

AGCCGGAA: the binding signal (normalized occupancy) turned out to be 0.0669. As for CATTCCCA, the binding signal (normalized occupancy) is 0.0803. The value for CGCAAAAG was 0.0662; that for CGCTTTGC was 0.0674; that for AACATTCT was 0.0752. Take TACCTCAA: the binding signal (normalized occupancy) turned out to be 0.0732. As for CGCAAGAG, the binding signal (normalized occupancy) stood at 0.0757. On to GCGACAGA, for which the binding signal (normalized occupancy) was 0.0794.

As for ATTCGTAA, the binding signal (normalized occupancy) was 0.074. Regarding ACCTAGGT, the binding signal (normalized occupancy) amounted to 0.0676. As for ACTGTGCC, the binding signal (normalized occupancy) was 0.0693.

Take ATGTGCAG: the binding signal (normalized occupancy) was found to be 0.0856. In the case of AGGTTCCA it was 0.0738; in that of ACGAGCAG, 0.0759; in that of CGGCAAAG, 0.0696. Consider GCACGCCC, for which the binding signal (normalized occupancy) came to 0.0848. The value for ACGAGCGA was 0.0744; that for TAAACGTA was 0.0752.

As to GACGTAAC, the binding signal (normalized occupancy) is 0.0726.

On to ATGACTCC, for which the binding signal (normalized occupancy) stood at 0.0807. With ATGCAAGC, the binding signal (normalized occupancy) turned out to be 0.075. Turning to ATCTTATC, the binding signal (normalized occupancy) was determined as 0.0789. For the sequence GCAGTGAC, the binding signal (normalized occupancy) was determined as 0.0743. For ACAAAAAC, the binding signal (normalized occupancy) was 0.0672.

Turning to CGCCTGTA, the binding signal (normalized occupancy) turned out to be 0.0773. Turning to GTTTCCCA, the binding signal (normalized occupancy) amounted to 0.0718. In the case of ACTTAAAG it was 0.0762; in that of CGGTAGAG, 0.0715. Regarding AGCCGCCC, the binding signal (normalized occupancy) is 0.0683. In the case of AGGCTAGG it was 0.0773. As for TCGCATAA, the binding signal (normalized occupancy) was determined as 0.08.

As to ATCCGCGC, the binding signal (normalized occupancy) turned out to be 0.0769. With GCTGGTTA, the binding signal (normalized occupancy) was 0.0729. Take AAACAACG: the binding signal (normalized occupancy) was determined as 0.079. In the case of GACCTAAC it was 0.0788; in that of GCACAAAA, 0.0706. In the case of CCCTGGCC it was 0.0682; in that of GATAAGCA, 0.0793; in that of ATGTAAGA, 0.0886. In the case of GAAACCCA it was 0.0749. On to CCGGCTAC, for which the binding signal (normalized occupancy) worked out at 0.0657. As to ACGTAATA, the binding signal (normalized occupancy) was determined as 0.0796. Take AATCTATA: the binding signal (normalized occupancy) was 0.0881. The value for CATGTGCG was 0.181; that for GATTTCCC was 0.0728. As to CTACCCCC, the binding signal (normalized occupancy) worked out at 0.0847. Take ATGACTGA: the binding signal (normalized occupancy) was 0.0749. Take CGGCTAAG: the binding signal (normalized occupancy) was determined as 0.0646. In the case of ACTGAGAC, the binding signal (normalized occupancy) was found to be 0.0684.

Turning to CAGTGAGC, the binding signal (normalized occupancy) is 0.0717. In the case of ACTAGAAA, the binding signal (normalized occupancy) was found to be 0.0746. On to CTTCTAGC, for which the binding signal (normalized occupancy) was determined as 0.0719.

As for GTCGAGAC, the binding signal (normalized occupancy) worked out at 0.0712. As to GAAGTTAC, the binding signal (normalized occupancy) came out at 0.0721. As to AGAGACGG, the binding signal (normalized occupancy) was found to be 0.0689.

With CAGTCTAA, the binding signal (normalized occupancy) was 0.0768. In the case of AAAGAACA, the binding signal (normalized occupancy) was 0.0707.

In the case of AGCCACAA, the binding signal (normalized occupancy) is 0.0748. For AAAATTAA, the binding signal (normalized occupancy) turned out to be 0.0694. In the case of CAGTGAGG it was 0.0748; in that of CCAAAAGA, 0.0742. In the case of CGAGAGAA it was 0.0734; in that of AAACTGAT, 0.0753.

Consider ACACTTGA, for which the binding signal (normalized occupancy) was determined as 0.08.

AGGCCACC: the binding signal (normalized occupancy) was 0.0752. ACAAGTAT: the binding signal (normalized occupancy) stood at 0.0781.

Regarding CAATATCG, the binding signal (normalized occupancy) worked out at 0.0763. On to ACCACCCG, for which the binding signal (normalized occupancy) is 0.0805.

Take CCATGCCC: the binding signal (normalized occupancy) came to 0.0935. Regarding CCCTGGCA, the binding signal (normalized occupancy) stood at 0.0717. As to CGATGGGA, the binding signal (normalized occupancy) came to 0.0717. As to AGGACTAG, the binding signal (normalized occupancy) worked out at 0.0726. Take AACTCAAC: the binding signal (normalized occupancy) stood at 0.0713. In the case of ACGTACGA it was 0.0805; in that of CTGTGTGC, 0.0783; in that of GGAGGAAA, 0.0732. As for TGACGCAA, the binding signal (normalized occupancy) turned out to be 0.0743. In the case of CCCCTCTC it was 0.0747; in that of CGGAAGTC, 0.0689. On to CGATAAGA, for which the binding signal (normalized occupancy) came out at 0.0715. GATTAGTA: the binding signal (normalized occupancy) turned out to be 0.075. With AGAGTCCG, the binding signal (normalized occupancy) came to 0.0682. As to CCTGTGGA, the binding signal (normalized occupancy) came to 0.0734. With AGCTGGTG, the binding signal (normalized occupancy) came to 0.0712. As to AACCGATA, the binding signal (normalized occupancy) came out at 0.0737.

Take AAGATACC: the binding signal (normalized occupancy) was found to be 0.0767. As to AGCTTAGG, the binding signal (normalized occupancy) came to 0.0751.

For the sequence CGTTTTTA, the binding signal (normalized occupancy) was 0.0742. As to GGGGGCAA, the binding signal (normalized occupancy) came out at 0.0709. In the case of CGGCCACC, the binding signal (normalized occupancy) was found to be 0.0706.

For GGTTCTCA, the binding signal (normalized occupancy) is 0.076. Regarding CCTCAAAC, the binding signal (normalized occupancy) is 0.0703.

In the case of CTGACTTA, the binding signal (normalized occupancy) was 0.0696. Regarding ACACCGGG, the binding signal (normalized occupancy) came to 0.0778.

As for AGGTGGGG, the binding signal (normalized occupancy) was determined as 0.0822.

Consider GCTTGCCC, for which the binding signal (normalized occupancy) was determined as 0.0712. The value for TGTCAAAA was 0.0758.

For AAGCAACA, the binding signal (normalized occupancy) amounted to 0.0803.

In the case of ACAAAGGA, the binding signal (normalized occupancy) came to 0.0755.

ATCAATGG: the binding signal (normalized occupancy) stood at 0.0774. Take ACACATAG: the binding signal (normalized occupancy) came to 0.0857.

As for AGACAGGA, the binding signal (normalized occupancy) was found to be 0.0719. In the case of ATTCTCAA, the binding signal (normalized occupancy) stood at 0.0804.

As to AGCTGGGC, the binding signal (normalized occupancy) worked out at 0.0673.

Consider CTAGGCCA, for which the binding signal (normalized occupancy) was 0.0743. In the case of AGATGCTC, the binding signal (normalized occupancy) came out at 0.0716. Regarding CCGTTGAG, the binding signal (normalized occupancy) was 0.0702.

For the sequence ACTGTCGG, the binding signal (normalized occupancy) amounted to 0.0685.

With AATAAATG, the binding signal (normalized occupancy) is 0.0853. In the case of CGTGAGAC it was 0.0852.

On to TCAGTTCA, for which the binding signal (normalized occupancy) worked out at 0.0744. The value for GGAGGTCA was 0.0759; that for CAATCCTC was 0.0774; that for CTCAAGCC was 0.0733. For the sequence AGAAGAAA, the binding signal (normalized occupancy) is 0.068. Turning to AGTTTCGG, the binding signal (normalized occupancy) turned out to be 0.0703. As to ACCATAAG, the binding signal (normalized occupancy) was 0.0853. As to CTGTGCAA, the binding signal (normalized occupancy) came to 0.0754. Take GGAGCACC: the binding signal (normalized occupancy) is 0.0769. On to CCAAGCAA, for which the binding signal (normalized occupancy) was 0.0719. With AAGATACA, the binding signal (normalized occupancy) was found to be 0.0801. As for CATTTTGA, the binding signal (normalized occupancy) came out at 0.0815.

Consider AGCAGTGA, for which the binding signal (normalized occupancy) was 0.0674. CAGTCTTA: the binding signal (normalized occupancy) was found to be 0.0706. For GATGAGGC, the binding signal (normalized occupancy) came out at 0.0786. In the case of ACATGAGG, the binding signal (normalized occupancy) amounted to 0.108. Regarding GGTGTACA, the binding signal (normalized occupancy) was 0.0857. In the case of CCGCCCGG, the binding signal (normalized occupancy) was 0.0669. Take CCGTTTAA: the binding signal (normalized occupancy) stood at 0.0797. AGGTGGAC: the binding signal (normalized occupancy) was 0.0775.

As to GGTGCTGA, the binding signal (normalized occupancy) is 0.078. In the case of CAGTTTAA it was 0.072; in that of ATTAGCGA, 0.0781; in that of GCTTTAAC, 0.0738. In the case of AATTTTAG it was 0.0735; in that of AAAGTTTA, 0.0713; in that of CTTATGGA, 0.0817. For AGCGTCCT, the binding signal (normalized occupancy) amounted to 0.0691. Regarding GTATACGA, the binding signal (normalized occupancy) stood at 0.0815.

Consider ACGACATA, for which the binding signal (normalized occupancy) stood at 0.0804. Take CCTGTCTC: the binding signal (normalized occupancy) stood at 0.0731. As to GAGCAGGA, the binding signal (normalized occupancy) worked out at 0.0774. As to CCTAACCA, the binding signal (normalized occupancy) stood at 0.0788. Consider GATAAGCC, for which the binding signal (normalized occupancy) amounted to 0.0742. Take AAAATTCC: the binding signal (normalized occupancy) was determined as 0.0739. Take GAAAGCCC: the binding signal (normalized occupancy) amounted to 0.0707. In the case of CGGTGAAG it was 0.0669; in that of ACTTTGCG, 0.0735. Consider AGCGGTTA, for which the binding signal (normalized occupancy) was 0.0705. As to GATTGCCC, the binding signal (normalized occupancy) turned out to be 0.0716. Take ATGTACTC: the binding signal (normalized occupancy) turned out to be 0.079. With AGAGCTCG, the binding signal (normalized occupancy) turned out to be 0.0631. The value for CACTTCAG was 0.0728.

In the case of CCTGGCCC, the binding signal (normalized occupancy) was 0.0674. As to AGCTGCAA, the binding signal (normalized occupancy) amounted to 0.0728. Regarding AGGTCGCA, the binding signal (normalized occupancy) amounted to 0.0729.
